Assay results reported in PubChem BioAssay AID1240 (Sanford-Burnham Center for Chemical Genomics, 2008).
About 800 (1.6%) of roughly 50,000 compounds showed an effect of 50% or more. This is one part of the list.

Target: Bcl-2-like protein 10 (Homo sapiens) (UniProt Q9HD36)
Assay: TR3 peptide-Bcl-B binding displacers, biochemical primary FP assay, phenotype converters (AID 1240);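 further: 0% = Bcl-B with tracer peptide and DMSO and 100% = tracer peptide lacking Bcl-B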
Conditions: GST-Bcl-B / FITC-TR3 peptide fluorescence polarization; stronger effect = higher value; compound at 3.75 mg/L

Chain of UniProt Q9HD36 (Q9HD36 whole entry, looked up): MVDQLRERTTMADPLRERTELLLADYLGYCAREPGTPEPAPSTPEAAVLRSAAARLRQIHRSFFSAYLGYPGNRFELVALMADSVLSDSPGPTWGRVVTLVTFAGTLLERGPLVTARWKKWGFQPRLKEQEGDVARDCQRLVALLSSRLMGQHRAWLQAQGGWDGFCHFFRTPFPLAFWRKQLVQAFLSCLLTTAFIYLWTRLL

In order of rising displacement:
1. COc1ccc(CSc2nnnn2C)cc1F  -16.2%
2. Cc1nc2c(CN3CCCCC3)c(O)ccc2[nH]1  -16.2%
3. COc1ccc(CNC(=O)COc2ccc(C)cc2)cc1  -15.4%
4. C(=N\N=C(\Cc1nc2ccccc2[nH]1)c1ccccc1)/c1cccs1  -13.9%
5. COC(=O)c1ccc(C2C(C#N)=C(N)Oc3c2c(C)nn3-c2ccccc2)cc1 (stereo not drawn)  -11.6%
6. COc1cccc(NC(=O)Nc2cccc(C(F)(F)F)c2)c1  -11.2%
7. COc1ccc(C(=O)N2CCN(S(=O)(=O)c3ccc(Cl)cc3)CC2)cc1  -10.9%
8. O=C(c1ccc(S(=O)(=O)c2ccccc2)cc1)N1CCOCC1  -10.6%
9. COc1ccccc1OCCNC(=O)c1cccc2ccccc12  -9.7%
10. O=S(=O)(NCc1ccccc1)c1ccc(Cl)c(S(=O)(=O)NCc2ccccc2)c1  -8.9%
11. COc1ccc(C(=O)N2CCN(C(=O)c3ccc([N+](=O)[O-])cc3)CC2)cc1  -8.6%
12. O=C(CSc1nc2ccc(N3C(=O)c4ccccc4C3=O)cc2s1)c1ccc([N+](=O)[O-])cc1  -8.6%
13. CCCCOn1nnc2ccc([N+](=O)[O-])cc21  -8.4%
14. Cc1ccc(C(=O)N/N=C/c2c3ccccc3cc3ccccc23)cc1[N+](=O)[O-]  -8.2%
15. CC1CC(C)CN(C(=O)Nc2ccccc2)C1 (stereo not drawn)  -7.8%
16. O=S(=O)(c1ccc(Cl)cc1)N1CCN(C/C=C/c2ccccc2)CC1  -7.4%
17. O=C(c1ccc(F)c(F)c1)N1CCN(c2cc(N3CCOCC3)c(F)cc2[N+](=O)[O-])CC1  -7.3%
18. O=C(O)c1ccc(N2C(=O)CC(N3CCN(c4cccc(Cl)c4)CC3)C2=O)cc1 (stereo not drawn)  -6.7%
19. O=C1NC(=O)C(=Cc2cccc(OCc3ccc(Cl)cc3Cl)c2)C(=O)N1  -6.6%
20. O=C(Nc1ccc(NC(=O)c2cccs2)cc1)c1cccs1  -6.6%
21. O=C(/C=C/c1cccs1)N1CCN(C/C=C/c2ccccc2)CC1  -6.5%
22. CC1=CC(C)C(C(=O)O)C(C(=O)Nc2cccnc2)C1 (stereo not drawn)  -5.7%
23. Cn1c(=O)c2c3c(sc2n(CC(=O)c2ccc(Cl)cc2)c1=O)COC(C)(C)C3  -4.7%
24. Cc1ccc(CCC(=O)Nc2ccc(Cl)cc2)o1  -4.5%
25. N#C/C(=C\c1ccc(Cl)cc1Cl)c1nc(-c2ccc(Br)cc2)cs1  -4.1%
26. Cc1cccc(OCCCCN2CCCC2)c1C  -4%
27. CCOc1cc(C(=O)Nc2cc(C(=O)OC)ccc2C(=O)OC)cc(OCC)c1OCC  -4%
28. COc1ccc(OCC(=O)N2c3ccccc3Sc3ccc(C(F)(F)F)cc32)cc1  -3.4%
29. COc1cc2oc(=O)c3c(c2cc1Cl)CCCC3  -3.2%
30. CCOc1ccccc1C(=O)Nc1nc(-c2ccc(C)cc2C)cs1  -2.8%
31. COc1ccc(C2NN=C(Cc3ccccc3)S2)cc1 (stereo not drawn)  -2.8%
32. Cc1cc(C(C)(C)C)nc2[nH]n(-c3ccccc3)c(=O)c12  -2.3%
33. O=C(NC1C2CC3CC(C2)CC1C3)c1ccc(Cl)cc1Cl (stereo not drawn)  -2.2%
34. Cc1cccc(NC(=O)c2c(NC(=O)C(C)(C)C)sc3c2CCCC3)c1  -2.2%
35. CC(=O)Oc1ccc(NC2=C(Cl)C(=O)c3ccccc3C2=O)cc1  -2.1%
36. COc1cc(NC(=O)COc2cc(C)ccc2C(C)(C)C)c(OC)cc1Cl  -1.9%
37. CC1=NN(c2ccc(S(N)(=O)=O)cc2)C(=O)/C1=C\c1ccc(-c2ccc([N+](=O)[O-])cc2)o1  -1.6%
38. Cc1ccc2nc(NNC(=O)CCC(=O)O)nc(-c3ccccc3)c2c1  -1.5%
39. COC(=O)CN(c1ccc(Cl)c(Cl)c1)S(=O)(=O)c1ccccc1  -0.9%
40. CC(C)N(C(=O)COc1ccc(Cl)cc1Cl)C(C)C  -0.7%
41. Cc1ccccc1C(=O)Nc1ccc2[nH]c(=O)[nH]c2c1  -0.3%
42. Cc1ccc(S(=O)(=O)N(CC(=O)NC2CCCC2)Cc2ccccc2)cc1  -0.3%
43. COc1ccc(OCCSc2nc3ccccc3n2CC(=O)O)cc1  0%
44. O=C(O)c1cc(Br)ccc1NC(=O)C(c1ccccc1)c1ccccc1  0%
45. COCCCNC(=O)C(=O)Nc1ccc(Cl)c(C(F)(F)F)c1  0.1%
46. Cc1ccc(-c2nc(-c3ccccc3Cl)no2)cc1  0.1%
47. Cc1ccc2c(c1NC(=O)c1ccc(-c3ccccc3)cc1)C(=O)c1ccccc1C2=O  0.2%
48. CCOc1cc(C2Nc3ccccc3NC3=C2C(=O)CC(c2ccc(OC)cc2)C3)cc(Br)c1O (stereo not drawn)  0.4%
49. COc1cc2c(cc1NC(=O)COc1ccccc1OC)oc1ccccc12  0.7%
50. O=C1N/C(=N/c2ccccn2)SC1Cc1cccc(Cl)c1 (stereo not drawn)  0.8%
51. CCOc1ccccc1N(CC(=O)NCCc1ccccc1)S(=O)(=O)c1ccccc1  1%
52. CCN(CC)C(=S)Sc1nc(Nc2ccc(OC)cc2)nc(Nc2cccc([N+](=O)[O-])c2)n1  1%
53. COc1ccccc1C(=O)NC(=S)Nc1cccc2c(C)cc(C)nc12  1.1%
54. COC(=O)C1=CNC=C(C(=O)OC)C1c1cccc(OCc2ccccc2)c1  1.2%
55. COc1ccc(Br)cc1C(=O)Nc1cccc(C(C)=O)c1  1.3%
56. O=C(N/N=C/C1CC=CCC1)c1cc(Br)ccc1O (stereo not drawn)  2.2%
57. COCCN(CCOC)Cc1c(C)[nH]c2ccccc2c1=O  2.5%
58. CCN(CC)S(=O)(=O)c1ccc(Cl)c(C(=O)Nc2cccc(C(=O)O)c2)c1  2.8%
59. Cc1cccc(C)c1NC(=O)c1ccc([N+](=O)[O-])cc1  3.1%
60. COc1ccc(/C=N\NC(=O)c2ccc(Br)cc2)cc1Cl  3.8%
61. O=C(N/N=C/c1c(F)cccc1Cl)c1ccc(O)cc1O  3.9%
62. CC1CN(C(=O)c2cc([N+](=O)[O-])cc([N+](=O)[O-])c2N)CC(C)O1 (stereo not drawn)  3.9%
63. COc1ccc(CCNC(=O)CN(c2ccccc2C)S(C)(=O)=O)cc1OC  3.9%
64. CC/C(=C/C(=O)c1ccncc1)Nc1ccc(O)cc1  4.4%
65. COc1ccc(NC2(c3ccccc3)C(=O)c3c(Cl)c(Cl)c(Cl)c(Cl)c3C2=O)cc1  4.4%
66. COc1c(O)ccc(/C=N\NC(=O)c2ccc3c(c2)OCO3)c1[N+](=O)[O-]  4.7%
67. CNC(=O)CN(c1cc(OC)ccc1OC)S(C)(=O)=O  5.1%
68. O=C(c1cc2n(n1)C(C(F)(F)F)CC(c1ccccc1)N2)N1CCOCC1 (stereo not drawn)  5.1%
69. COc1ccc(C=Nc2ccc3nn(-c4ccccc4)nc3c2)cc1  5.2%
70. CCOc1cccc(C(=O)Nc2sc(CC)cc2C(=O)OC)c1  5.7%
71. C=CCc1c(C)[nH]c2ccc(C(=O)OCC)cc2c1=O  6.3%
72. COCCOC(=O)c1c(C)oc2ccc(OCc3ccccc3Br)cc12  6.9%
73. O=C(O)Cc1ccc(/C(=N\O)c2cccs2)s1  6.9%
74. Cc1onc(-c2ccccc2)c1C(=O)N1CCN(c2ccc([N+](=O)[O-])cc2)CC1  7.3%
75. O=[N+]([O-])c1ccc(-n2nnc3ccccc32)nc1  7.7%
76. CC(=O)CC(=O)Nc1cc(C)cc(C)c1  8%
77. O=C(Nc1nc(CC23CC4CC(CC(C4)C2)C3)cs1)c1ccc(F)cc1  8.3%
78. Nc1nonc1C(=O)NCCNC(=O)CCc1ccccc1  8.8%
79. COc1ccc(C2=N/C(=C/c3ccc(F)cc3)C(=O)N2c2ccc(O)cc2)cc1  9%
80. O=Cc1ccc(OCc2ccc([N+](=O)[O-])cc2)cc1  9.2%
81. CCC(C)c1ccccc1OCC(=O)Nc1nccs1 (stereo not drawn)  9.9%
82. Cc1nnc(N2C(=O)c3ccc(-c4nc5ccccc5c(=O)o4)cc3C2=O)s1  9.9%
83. O=C1CC(c2ccc3c(c2)OCO3)CC2=C1C(c1ccccc1OCc1ccccc1)Nc1ccccc1N2 (stereo not drawn)  10.5%
84. COc1ccc(N=Cc2c(O)n(-c3cc(OC)ccc3OC)c(=O)[nH]c2=O)c(OC)c1  10.8%
85. CCn1cc(C(=O)O)c(=O)c2cc(F)c(N/N=C/c3ccccc3[N+](=O)[O-])cc21  11.1%
86. COc1ccc(C)cc1NC(=O)CC(C)=O  11.4%
87. CC(=O)Oc1cccc(N2C(=O)c3ccc(C(=O)Nc4c[nH]c(=O)[nH]c4=O)cc3C2=O)c1  11.4%
88. COc1ccc(Cl)cc1NC(=O)C1=C(C)NC(=O)NC1c1ccccc1Br (stereo not drawn)  11.4%
89. CC(=O)c1ccc(NC(=O)c2ccc(OCC(C)C)cc2)cc1  11.6%
90. COc1cccc2c1NC(c1ccc(Br)cc1)C1CC=CC21 (stereo not drawn)  11.8%
91. COc1ccc(OC)c(NC(=O)c2ccc3c(c2)C(=O)N(c2cccc([N+](=O)[O-])c2)C3=O)c1  11.8%
92. O=C(N/N=C/c1ccc(OCc2ccccc2)cc1)c1cnccn1  12.3%
93. Cc1cccc(N=C2NC(=O)/C(=C\c3ccc([N+](=O)[O-])cc3)S2)c1C  12.8%
94. COc1cc(/C=C2/C(=O)N(c3ccccc3)N=C2C)cc(I)c1O  13.1%
95. CCN(C(=O)c1ccccc1Cl)c1ccccc1  13.2%
96. O=C(COc1ccc(Cl)cc1Cl)Nc1ccc(Cl)cn1  13.2%
97. CCOC(=O)CNC(c1ccccc1)c1cc(Br)ccc1NC(=O)OCC (stereo not drawn)  13.2%
98. Cc1ccc(C(=O)c2cccc(C(=O)c3ccc(C)cc3)c2)cc1  13.3%
99. Cc1cc([N+](=O)[O-])c(-c2ccc(C=C3C(=O)c4ccccc4C3=O)o2)cc1Cl  14%
100. COC(=O)C(NC(=O)c1ccccc1)C12CC3CC(CC(C3)C1)C2 (stereo not drawn)  14.9%
101. CC(C)(C)OC(=O)N1N=C(c2ccccc2)CC1(O)C(F)(F)F (stereo not drawn)  15.2%
102. C=CCOc1ccc(/C=C2/C(=O)NN(c3ccc(C)c(Cl)c3)C2=O)cc1OC  15.5%
103. CCOc1ccc(NC(=O)c2cncc(Br)c2)cc1  17.9%
104. Cc1ccc(-c2cc(C(=O)Nc3ccncc3)c3ccccc3n2)cc1C  36.1%
105. COc1cc(/C=C2\C(=O)NC(=O)N(c3ccc(C)cc3)C2=O)ccc1OCc1ccccc1  38.6%
106. N#Cc1c(N)n(-c2cccc(O)c2)c2nc3ccccc3nc12  44.2%
107. Cc1ccc(C=C2C(=O)NC(=O)N(c3cccc(Cl)c3)C2=O)s1  87.1%
108. CCCOc1cccc(C(=O)Nc2ccc3c4c(cccc24)CC3)c1  88.7%
